# Experimental data published in US7399608B2, “Microbial detection and quantification” (Kimberly-Clark Worldwide, Inc., priority 2003, dated 2008).
# Tests used:
# [1] = system: bacteria from aged chicken juice; experiment: Reichardt's dye indicator spray on surfaces contaminated with aged chicken; conditions: 160 mg in 10 ml acetonitrile, hot plate surface
# [2] = system: bacteria in aged chicken juice; experiment: N-docosyl-merocyanine dye coated onto cotton fabric, aged chicken juice; conditions: pinkish-orange areas after 1 N sodium hydroxide
# [3] = system: budgerigar feces suspension; experiment: N-methyl merocyanine coated paper towel, pet bird feces suspension; conditions: 0.5 g dye in 20 ml water on SCOTT towel
# Protocol: Budgerigar feces was collected from a caged pet budgie, and shaken in approximately 10 ml of Atlanta city domestic tap water. N-methyl merocyanine dye of structure 33 above was synthesized as described above.
# [4] = system: microbes in aged female human urine; experiment: N-methylmerocyanine coated onto kitchen paper towel, aged urine
smiles,measurement,setting,value
"[O-]c1c(-c2ccccc2)cc(-[n+]2c(-c3ccccc3)cc(-c3ccccc3)cc2-c2ccccc2)cc1-c1ccccc1 [Reichardt's dye, 2,6-diphenyl-4-(2,4,6-triphenylpyridinio)-phenolate]",color change of indicator spray on pattern of aged raw chicken juice,[1],de-colorization of the dye in the exact form of the pattern of chicken juice
CCCCCCCCCCCCCCCCCCCCCC[n+]1ccc(C=Cc2ccc(O)cc2)cc1.[Br-],color change of dye + NaOH spots on cotton,[2],color change from pinkish-orange to very pale yellow
COc1cc(/C=C/c2cc[n+](C)cc2)ccc1[O-] [N-methyl merocyanine dye],color change of coated towel with budgie feces suspension,[3],immediate color change from deep orange to pale yellow
same,color change of coated towel with aged urine,"[4]; urine stored 24 hours at 37° C., approximately 1×10^5 CFU/ml expected",immediate color change from deep orange to pale yellow
same,color change of coated towel with aged urine,"[4]; urine stored 8 days at room temperature, 0.5 g dye in 20 ml water on SCOTT towel",immediate color change from deep orange to pale yellow
